{
  "source": "paper PMC12136788",
  "binders": {"B1": {"name": "chr4:107013644:107013645:+_ENSMUSG00000057375_ENSMUST00000075693|mus_mus|FALSE|FALSE (ssRNA)", "RNA": "GGGAGUUCUACAGUCCGACGAUCCACAUAAUGGUAUGUCUUCUCUCCCAGAUGGAUUAGGAAGUUAGAAAGGUUCCCACUAAUUGCUAUGGCAAAGACCAACGUGGCACAUAUCCAAAAGGGACCAUAGAGAUCUGGAUUGCUCAACAGAGGAUUGAGCAUCA"}, "B2": {"name": "chr10:114658717:114658718:-_ENSMUSG00000020130_ENSMUST00000020339|mus_hu|FALSE|FALSE (ssRNA)", "RNA": "GGGAGUUCUACAGUCCGACGAUCAAGAUUUUCAAAAGACUGUGAAAGACUCUUAUUCUGACAAUUCACAAGAAGUGUUCUUUUAUCCUGUGGAGAUUCACACAAUACCACAUAUUUUUCAAGAGAUUCAAUCAGUAGUUUGCUCAACAGAGGAUUGAGCAUCA"}, "B3": {"name": "chr18:48442549:48442550:+_ENSG00000082212_ENST00000321341|hu_mus|FALSE|FALSE (ssRNA)", "RNA": "GGGAGUUCUACAGUCCGACGAUCAAUUGAUCUAACAUGACCUCUGUCUGAGAUUGAAAUAAACAAUCCCUUAGGUCUCCUAAAGAUGUGCCCAUAUUGACAGCAGGCAAGACCAACUGUUGGCGUGUACACAAUCGGCAUCAGCAACAGAGGAUUGAGCAUCA"}, "B4": {"name": "chr17:65740002:65740003:+_ENSG00000130935_ENST00000581375|hu_hu|hu_hu_hu_mus_False|18_58 (ssRNA)", "RNA": "GGGAGUUCUACAGUCCGACGAUCAACAAAUCUUUCUUCCCUGGACGAACAGGAAGAUUCAUAUUAAAAAAAAUAUAUGUCUAUGAAGUUAGGUGUGGUGGCCACACCUUUACUCCCCACUUCAAUUGAGGUGGAUCUCUGAGUCAACAGAGGAUUGAGCAUCA"}, "B5": {"name": "chr2:202488911:202488912:-_ENSG00000155755_ENST00000286196|hu_mus|hu_hu_hu_mus_False|1_38 (ssRNA)", "RNA": "GGGAGUUCUACAGUCCGACGAUCAUUGAAACAUUUUUCAUAAUCUCCAGUAGCAUUUCAGCAUUAUGUAACAAAAGCUCAAUUGUAAAUACAUGUAUAUACAUCUUAUACACUUAAAAACACGAGUGGGGAGCGCACAAAUACCAACAGAGGAUUGAGCAUCA"}, "B6": {"name": "chr10:33190432:33190433:-_ENSG00000150093_ENST00000302278|hu_mus|hu_hu_hu_mus_True|48_88 (ssRNA)", "RNA": "GGGAGUUCUACAGUCCGACGAUCUACAUUUUCCAAACCUGCAUGUGAGUAAAACCAUGGCCACAGAGCCCCAAAACUACCCUACUGUGACUAUGGAGCUGCUGCUGUGAGCUUGGUGUUGCAAAAUCCGCCUGAGUAGGAUUCCAACAGAGGAUUGAGCAUCA"}, "B7": {"name": "184677316_184677436_2214_CDS_ENSG00000116406_ENST00000318130|human|control|control (ssRNA)", "RNA": "GGGAGUUCUACAGUCCGACGAUCCUGAGCUGGUCCAGCAGUCAAUACUACCCUGCCAAAAAAUGGGUGGGAAACAAUUUGUACAGCUCGUGGAGGCAGCUGCUGUUCUUUUUGUUGCUGACUUGACAAUUCAAUCAUCUCCUGCAACAGAGGAUUGAGCAUCA"}, "B8": {"name": "chr6:36760027:36760028:-_ENSMUSG00000029838_ENSMUST00000101534|mus_mus|FALSE|FALSE (ssRNA)", "RNA": "GGGAGUUCUACAGUCCGACGAUCUAUCGCUGGCUGAUGCUCCUGCCUGGGCGGCUGCGCUCUGCUCUCCCCCCUUCUGGAUGGAUGACUCAGUGCUUUCUUUCUUCCCCUCUCUCCACUUUGGGUUUUCUUGUGCUCUGGGGCCAACAGAGGAUUGAGCAUCA"}, "B9": {"name": "chr9:120864499:120864500:+_ENSMUSG00000006932_ENSMUST00000007130|mus_hu|FALSE|FALSE (ssRNA)", "RNA": "GGGAGUUCUACAGUCCGACGAUCAUAAUUAUUGCAAGUGAGGUUAGAAAGAAUUCCAGCUGCACAGGUGACCACAUUUAUAUCAUCUGAACCCAGAAGCUGAACAAGAGUCCCAAGGAGACCUUCCAUCCCUUCCUGUUUAGUCAACAGAGGAUUGAGCAUCA"}, "B10": {"name": "123199738_123201729_3909_CDS_ENSG00000136861_ENST00000349780|human|control|control (ssRNA)", "RNA": "GGGAGUUCUACAGUCCGACGAUCGCCAUCCUUAAUCUGCUGCCGUUGAAGGGAGAGCUCCCUGGCUUGGGACUGAACUAAUGAAUCGUAUCUGGGAGGUGAGAGAUCUCUGAACUUAUUCUGCAGAUUAUGGAUCUCACUGAACAACAGAGGAUUGAGCAUCA"}, "B11": {"name": "chr22:32879901:32879902:+_ENSG00000100225_ENST00000397426|hu_mus|hu_hu_hu_mus_False|18_78 (ssRNA)", "RNA": "GGGAGUUCUACAGUCCGACGAUCCUCUUCCAUACUCAUGGCAUCCUGAAUUGACUCAGCUUCAAAAUUUUGACUAGGCCCUUCCAUACUGUCAUCAGUCCAGGCAUCAAAUGGGGUUGCCUGUCCUUGGGAUGAAUCAGUCCCCAACAGAGGAUUGAGCAUCA"}, "B12": {"name": "chr7:116176368:116176369:+_ENSMUSG00000031028_ENSMUST00000033341|mus_mus|FALSE|FALSE (ssRNA)", "RNA": "GGGAGUUCUACAGUCCGACGAUCCAGACAGACACACACACACAGACACAGAGCACCUUGGAGCCAGAAGGACAGAAAAAGCUAGACUUGGAGAGGAGCUGGGGAAGCUAACAUCACCACUCUGCAGAAGAACUGGUUUGGAGCCAACAGAGGAUUGAGCAUCA"}, "B13": {"name": "chrX:41000244:41000245:+_ENSG00000124486_ENST00000378308|hu_hu|motif|central (ssRNA)", "RNA": "GGGAGUUCUACAGUCCGACGAUCUGCUUCUUUUUUCAGUUCUUCAUCAGUUAAGUUUUCUAAAAACUGUGGAACCAUUUCGGUUAUUGGAAGAAAGUACUUUUUCACUGUAUGAAGAGUGAGAAACUCAUAGCAUUGCCCAAACAACAGAGGAUUGAGCAUCA"}, "B14": {"name": "chr10:33190432:33190433:-_ENSG00000150093_ENST00000302278|hu_mus|hu_hu_hu_mus_True|1_38 (ssRNA)", "RNA": "GGGAGUUCUACAGUCCGACGAUCUACAUUUUCCAAACCUGCAUGUGAAUAAAACCCUGGCCACAGAGCCCCAAAACUACCCUACUGUGACUAAGAUAAUUGCUACUUGAGCUUGGUGUUGCAAAAUCCGCCUGAGUCAGUACUCAACAGAGGAUUGAGCAUCA"}, "B15": {"name": "chr14:66974463:66974464:+_ENSMUSG00000022044_ENSMUST00000074523|mus_hu|mus_mus_mus_hu_False|48_48 (ssRNA)", "RNA": "GGGAGUUCUACAGUCCGACGAUCUUGUAGGACGACUUAUUCAGGGGAUCGGCCAGGAAGCAGGAGCAGAACAAGGACACCAGCGGGAGUUCCUUCAUCUUCUCUUUGUAGGCAGCAAGGGUCAUGUUUCUGGGAUCUGGUGGCCAACAGAGGAUUGAGCAUCA"}, "B16": {"name": "chr17:24776569:24776570:-_ENSMUSG00000002504_ENSMUST00000002572|mus_mus|FALSE|FALSE (ssRNA)", "RNA": "GGGAGUUCUACAGUCCGACGAUCAGAGAGCCUAGGCUCUGCAUUCCAGAACCCAGCAUGUGGGAGGUAGCACAGGGGUAGCUAGGCAGAGAAGAGAGGCCUGGCCUAGGGACCAUCCCAUGUGAGGGAUGGGGCAGAGGGACACAACAGAGGAUUGAGCAUCA"}, "B17": {"name": "chr2:202488911:202488912:-_ENSG00000155755_ENST00000286196|hu_mus|hu_hu_hu_mus_False|18_98 (ssRNA)", "RNA": "GGGAGUUCUACAGUCCGACGAUCAUUGAAACAUUUUCAUAAUAUUGCAGUAGCAUUUCAGCAUUAUGUAACAAAAGCUCAAUUGUAAAUACAUGUAUCUUAUAAAAAUACACUUAAAUUUAAAAACGGGGAGCGCAGGCGCCACAACAGAGGAUUGAGCAUCA"}, "B18": {"name": "62233625_62233745_1228_CDS_ENSMUSG00000020074_ENSMUST00000020268|mouse|control|control (ssRNA)", "RNA": "GGGAGUUCUACAGUCCGACGAUCCUGCACUGUGUACCGUGGAACGACACGACGGACUCUCCGAGGGGAGCGCUCUCUUUCUCUCCGGGGUGACCUCUCCCGGGAACGUUUCCUCUGAGGUGAUCUUUCUCUAGAUCUGCGUCUCAACAGAGGAUUGAGCAUCA"}, "B19": {"name": "chr18:56900473:56900474:+_ENSMUSG00000024590_ENSMUST00000025486|mus_hu|FALSE|FALSE (ssRNA)", "RNA": "GGGAGUUCUACAGUCCGACGAUCAACAUCAAUUUCUUCGAUGCAAACAUUUCCAGUGGCUGAGGCGGAAUGAGAGAUGCUAACACUACUACUCGCCUCUGAUUCUUCCACAUCAACCCUCUUCCGCUUUCCUCUAGUUGUACGCAACAGAGGAUUGAGCAUCA"}, "B20": {"name": "chr7:54823571:54823572:-_ENSG00000132432_ENST00000352861|hu_mus|hu_hu_hu_mus_False|1_8 (ssRNA)", "RNA": "GGGAGUUCUACAGUCCGACGAUCUCCCAUGAUAGCAAAUCCUAUAGCUGUAGCCAUGGCAAUCUUCUGGAAUUCUUUUCUGUCGGGUUUGGUGCAUCUUUUAACCAGCCGAAUUGAGUCCUUUACAAACUGCCGACUUGGCUCCAACAGAGGAUUGAGCAUCA"}, "B21": {"name": "chr16:94664741:94664742:+_ENSMUSG00000040785_ENSMUST00000117648|mus_hu|mus_mus_mus_hu_False|18_78 (ssRNA)", "RNA": "GGGAGUUCUACAGUCCGACGAUCUGGUACUGAUCUUGGUAGCUGAUAUUCAGGAGAAAUGUUGGCCAAGGGUGUAUAUAUGCUGGUGUACUGGGGCAAACCUGGUAACACGUUUAUGUACGCUGGUGGUGUCUGGGUGAUAUCCAACAGAGGAUUGAGCAUCA"}, "B22": {"name": "chr1:39494564:39494565:+_ENSG00000168653_ENST00000372967|hu_hu|hu_hu_hu_mus_True|8_68 (ssRNA)", "RNA": "GGGAGUUCUACAGUCCGACGAUCAUGCAUUCGCCUCAUCGUUUUGUACCGAAGCAAGCACUCUUCGAAAUCAUCAUACUCUAUCUUGCACUCCUUUUUCGCCCGGGUCCCACCGAUCCCGUGUGCACAUUCUAUCCACUCUUUCAACAGAGGAUUGAGCAUCA"}},
  "note": "Some of the results follow.",
  "data": [
    {"target": "T1, UNK ZnF1-3 (human, UniProt Q9C0B0 31-174)", "T1 sequence": "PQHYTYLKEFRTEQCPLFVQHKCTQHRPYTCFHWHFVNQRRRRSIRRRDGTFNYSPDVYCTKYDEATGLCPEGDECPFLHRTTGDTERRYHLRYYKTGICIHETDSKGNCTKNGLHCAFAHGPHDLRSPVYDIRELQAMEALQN", "assay": "nsRBNS (natural sequence RNA bind-n-seq); RBNS binding buffer (assumed for nsRBNS): 25 mM Tris pH 7.5, 150 mM KCl, 3 mM MgCl2, 0.01% Triton X-100, 500 ug/ml BSA, 20 U/ml SUPERase-In, 4 C; UNK is unkempt and MSI1 is Musashi-1; names of the RNAs are library labels; protein concentration not given here; high values mean tight binding", "units": {"binding signal": "enrichment R"}, "values": [
      {"binder": "B1", "binding signal": 1.09},
      {"binder": "B2", "binding signal": 0.617},
      {"binder": "B3", "binding signal": 0.933},
      {"binder": "B4", "binding signal": 0.888},
      {"binder": "B5", "binding signal": 1.48},
      {"binder": "B6", "binding signal": 0.83},
      {"binder": "B7", "binding signal": 1.06},
      {"binder": "B8", "binding signal": 0.637},
      {"binder": "B9", "binding signal": 1.04},
      {"binder": "B10", "binding signal": 1.23},
      {"binder": "B11", "binding signal": 0.971},
      {"binder": "B12", "binding signal": 2.69},
      {"binder": "B13", "binding signal": 0.724},
      {"binder": "B14", "binding signal": 0.874},
      {"binder": "B15", "binding signal": 2.5},
      {"binder": "B16", "binding signal": 1.07},
      {"binder": "B17", "binding signal": 2.2},
      {"binder": "B18", "binding signal": 0.51},
      {"binder": "B19", "binding signal": 0.954},
      {"binder": "B20", "binding signal": 0.79},
      {"binder": "B21", "binding signal": 0.888},
      {"binder": "B22", "binding signal": 0.655}
    ]}
  ]
}
